Measured values published in the supplement of paper PMC7125110.
± gives the standard error. Variants at the background level are over-represented here.

B1: glmS ribozyme (parent)
chain: AUAAAAGCGCCAGAACUACAGAAAUGUAGUUGACGAGGAGGAGGUUUAUCGAAUUUUCGGCGGAUGCCUCCAAA

Columns and labels:
Conditions in all cases: with glucosamine-6-phosphate
glucosamine-6-phosphate [1] = variants of: B1; experiment: self-cleavage kobs at 640 uM GlcN6P; higher = faster cleavage; RNA array
Procedure, shortened: (§1)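 Barcoded ribozyme variants, transcribed in situ by E. coli RNA polymerase on sequenced MiSeq chips, were followed via a hybridised Cy3 probe at 37 °C. Glucosamine-6-phosphate ranged from 40 μM to 10 mM in HEPES/KCl/Mg(OAc)2 buffer. kobs came from decay fits to per-tile medians, and kcat and KM from weighted Michaelis–Menten fits.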

glucosamine-6-phosphate [2] = variants of: B1; experiment: self-cleavage kobs at 160 uM GlcN6P; higher = faster cleavage; RNA array
Procedure, shortened: as §1

glucosamine-6-phosphate [3] = variants of: B1; experiment: self-cleavage kobs at 2500 uM GlcN6P; higher = faster cleavage; RNA array
Procedure, shortened: as §1

glucosamine-6-phosphate [4] = variants of: B1; experiment: self-cleavage kobs at 10000 uM GlcN6P; higher = faster cleavage; RNA array
Procedure, shortened: as §1

Variant	self-cleavage kobs at 640 uM GlcN6P (glucosamine-6-phosphate [1])	self-cleavage kobs at 160 uM GlcN6P (glucosamine-6-phosphate [2])	self-cleavage kobs at 2500 uM GlcN6P (glucosamine-6-phosphate [3])	self-cleavage kobs at 10000 uM GlcN6P (glucosamine-6-phosphate [4])
AUAAAAGCGCCAGGACUACAGAAAUGUAGUUGGCGAGGAGGAGGUUUAUCGAUUUUUCGGCAGAUGCCUCCAAA	< 1e-05 s⁻¹	< 1e-05 s⁻¹	< 1e-05 s⁻¹	–
AUAAAAGCGCCAGGACUACAGAAAUGUAGCUGACGAGGAGGAGGUUUAUCGAAUUUUCGGCGUAUGCCUCCAAA	< 1e-05 s⁻¹	< 1e-05 s⁻¹	–	< 1e-05 s⁻¹
AUAAAAGCGCCAGACCUACAGAAAUGUAGUUGACGAGGAGGAGGUUUAUAGAAUUUUCGGCGGACGCCUCCAAA	< 1e-05 s⁻¹	–	–	–
AUAAAAGCGCCAGUACUACAGAAAUAUAGUUGGCGAGGAGGAGGUUUAUCGAAUUUUCAGCGGAUGCCUCCAAA	< 1e-05 s⁻¹	–	–	–
AUAAAAGCGCCAGACUACAAGAAAUGUAGUUGACGGGGAGGAGUUUUAUCGAAUUUUCGGCGGAUGCCUCCAAA	< 1e-05 s⁻¹	–	–	–
AUAAAAGCGCCAGAGCUACAGAAAUGUAGUUGACGAGGAGGAGGUUUAUCGACUUUUCGGCGGAUGCUUCCAAA	4.28e-05 ± 2e-05 s⁻¹	–	0.000114 ± 3.9e-05 s⁻¹	–
AUAAAAGCGCCAGGACUACAGAAAUGUAGUUGACGAGGAGGAGGUUUAUCGAAUUUUCGGCGGAUGCCAACAAA	5.74e-05 ± 2.2e-05 s⁻¹	–	–	–
AUAAAAGCGCCAGUACUACAGAAAUGUAGUUGACGAGGAGGAGGUCUAACGAAUUUUCGGCGGAUGCCUCCAAA	< 1e-05 s⁻¹	< 1e-05 s⁻¹	< 1e-05 s⁻¹	–
AUAAAAGCGCCAGAGCUACAGAAAUGUAGUUGACGAGGAGGAGGUUUUUCGAAUUUUCGGCGGAUGCCUGCAAA	5.16e-05 ± 1.9e-05 s⁻¹	–	6.9e-05 ± 1.6e-05 s⁻¹	–
AUAAAAGCGCCAGUACUACAGAAAUGUAGUUGACGGGGAGGAGGUUAAUCGAAUUUUCGGCGGAUGCCUCCAAA	< 1e-05 s⁻¹	–	< 1e-05 s⁻¹	–
AUAAAAGCGCCAGAGCUACAGAAAUGUAGUUGACGGGGAGGAGGUUUAACGAAUUUUCGGCGGAUGCCUUCAAA	< 1e-05 s⁻¹	–	–	–
AUAAAAGCGCCAGACCUACAGAAAUGUAGUUGACCAGGAGGAGGUUUAUCGAAUUUUCGGCGGAUGCAUCCAAA	< 1e-05 s⁻¹	–	–	–
AUAAAAGCGCCAGUACUACAGAAAUGUAGGUGACGAGGACUAGGUUUAUGGAAUUUUCGGCGGAUGCCUCCAAA	< 1e-05 s⁻¹	–	< 1e-05 s⁻¹	–
AUAAAAGCGCCAGACCUACAGAAAUGUAGUUGCCGCGGAGGAGGUUUAUCGAAUUUUCGGCGGAUGCCUCCAAA	< 1e-05 s⁻¹	–	–	–
AUAAAAGCGCCAGGACUACAGAAAUGUAGUUGACAAGGAGGAGGUUCAUCGAAUUUUCGGCGGAUGACUCCAAA	< 1e-05 s⁻¹	< 1e-05 s⁻¹	–	–
AUAAAAGCGCCAGACCUACAGAAAUGUAUUUGACGAGGAGAAGGUUUAUCGAAUUUUCGGCGGUUGCCUCCAAA	< 1e-05 s⁻¹	–	–	–
AUAAAAGCGCCAGGACUACAGAAAUGUAGUUGACGAGGAGGAGGUUUAUCGAAUUUUGGUCGCAUGCCUCCAAA	< 1e-05 s⁻¹	–	–	< 1e-05 s⁻¹
AUAAAAGCGCCAGGACUACAGAAAUGUAGUCGACGAGGAGGAGGUUUAUCGAAUUAUCGGCGGAUGCCUCCAAA	0.00939 ± 0.0013 s⁻¹	0.0016 ± 0.00031 s⁻¹	0.0277 ± 0.0066 s⁻¹	–
AUAAAAGCGCCAGUACUACAGAAAUGUAAUUGACGAGGAGGAGGUUUAACGAAGUUUCGGCGGUUGCCUCCAAA	< 1e-05 s⁻¹	–	< 1e-05 s⁻¹	–
AUAAAAGCGCCAGGACUACAGAAAUGUAGUUGUGGAGGAGGAGGUUUAUCGAAUUUUCGGCGGAUGCCUCCAAA	< 1e-05 s⁻¹	–	–	–
AUAAAAGCGCCAGUACUACAGAAAUGUAGUUGACGAGGAGGACGUUUCUCGAAUGUUCGGCGGAUGCCUCCAAA	< 1e-05 s⁻¹	< 1e-05 s⁻¹	< 1e-05 s⁻¹	–
